89 compounds from PubChem BioAssay AID360 (National Center for Advancing Translational Sciences (NCATS), 2006) can be followed below.

Screen size: about 48,000 compounds; about 550 (1.1%) were called active. Inconclusive results (about 4%) are left out. No stated cut-off is given here; in the data, active means potency below about 15 µM; inconclusive means mostly about 16 µM to 33 µM; inactive means weaker than that. The list shows a part of the results. Bounds are passed on as bounds.
Potency means the concentration at half of the fitted maximal effect.

The target in the experiment is Lysosomal acid glucosylceramidase (Homo sapiens) (UniProt P04062). Put plainly: Glucocerebrosidase.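 Further: the screen sought inhibitors.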 Particulars: purified enzyme, resorufin glucoside fluorescence (screen aimed at inhibitors), 20 min. The gist of the method: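 Compounds titrated against 0.2 nM normal enzyme, 30 uM resorufin beta-D-glucopyranoside substrate, citrate/phosphate buffer with taurocholate and tween-20, pH 5.9. Reaction ran 20 min at room temperature; fluorescence (Ex 548/Em 600) gave AC50.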
UniProt P04062, sequence (P04062 whole entry, looked up): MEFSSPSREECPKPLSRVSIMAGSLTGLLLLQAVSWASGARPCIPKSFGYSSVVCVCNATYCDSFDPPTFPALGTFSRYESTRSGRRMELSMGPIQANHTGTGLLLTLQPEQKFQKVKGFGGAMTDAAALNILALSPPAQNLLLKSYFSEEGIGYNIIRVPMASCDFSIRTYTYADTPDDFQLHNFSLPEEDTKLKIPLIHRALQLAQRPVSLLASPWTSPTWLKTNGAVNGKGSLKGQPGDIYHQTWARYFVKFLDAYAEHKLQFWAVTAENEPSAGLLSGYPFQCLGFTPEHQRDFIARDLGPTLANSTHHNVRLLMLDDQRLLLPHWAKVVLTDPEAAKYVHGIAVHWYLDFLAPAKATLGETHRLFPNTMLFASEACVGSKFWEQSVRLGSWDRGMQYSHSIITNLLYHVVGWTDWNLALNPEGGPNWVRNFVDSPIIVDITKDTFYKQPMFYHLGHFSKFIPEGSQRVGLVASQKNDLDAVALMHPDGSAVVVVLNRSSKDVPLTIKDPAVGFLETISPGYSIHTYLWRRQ
As to `Cn1c(SCC(=O)NCc2ccco2)nnc1-c1ccc(S(=O)(=O)N2CCOCC2)cc1`, the Potency is inactive: > 76.9 µM.

As for `O=C(NCc1ccccn1)C1CCN(S(=O)(=O)N2CCCCC2)CC1`, the Potency is inactive: > 76.9 µM.

With `Cc1cccc(N(CC(=O)NC2CCCC2)C(=O)CCCC(=O)Nc2ccccn2)c1`, the Potency was inactive: > 76.9 µM.

As to `CCN(CC)CCNC(=O)c1c(O)c2cc(OC)c(OC)cc2[nH]c1=O`, the Potency is inactive: > 76.9 µM.

In the case of `C=CCSc1nnc2c(n1)OC(c1cccnc1)N(C(C)=O)c1ccccc1-2` (centres undefined), the Potency is inactive: > 76.9 µM.

For `Cc1cccc(C)c1NC(=O)CSc1nnc(CCCCCNC(=O)OC(C)(C)C)o1`, the Potency was inactive: > 76.9 µM.

On to `O=C(C1CCC(C(=O)N2CCCCC2)CC1)N1CCCCC1` (centres undefined), for which the Potency is inactive: > 76.9 µM.

On to `CCC(=O)Nc1cc(OC)c(NC(=O)c2ccccc2)cc1OC`, for which the Potency was inactive: > 76.9 µM.

As to `Cc1cccc(OCCCC(=O)O)c1C`, the Potency is inactive: > 76.9 µM.

Turning to `COc1ccccc1CC(=O)Nc1ccc(O)cc1C(=O)O`, the Potency is inactive: > 76.9 µM.

For `CC(C)Oc1ccc(C2/C(=C(/O)c3ccc(F)cc3)C(=O)C(=O)N2CCCN(C)C)cc1` (centres undefined), the Potency was inactive: > 76.9 µM.

`CC(=O)NC(C)C(c1cccs1)N1CCN(c2ccccc2)CC1` (centres undefined): the Potency is inactive: > 76.9 µM.

Turning to `CCc1cc(=O)oc2c(C)c(O)c(CN3CCCCC3)cc12`, the Potency is inactive: > 76.9 µM.

With `O=C(NC1CCCC1)C(c1cccs1)N(Cc1ccco1)C(=O)c1csnn1` (centres undefined), the Potency was inactive: > 76.9 µM.

For the compound `CC(C)(C)C1(c2ccccc2)NC(=O)N(CC(=O)N2CCOCC2)C1=O` (centres undefined), the Potency is inactive: > 76.9 µM.

Consider `CN(C(=O)c1ccncc1)c1nnc(-c2ccncc2)s1`, for which the Potency is inactive: > 76.9 µM.

Consider `CC(=O)NC1CC2CCCC(C1)N2CC(=O)N1CCCc2ccccc21` (centres undefined), for which the Potency was inactive: > 76.9 µM.

Regarding `Cn1c(=O)n(-c2cccc(Cl)c2)c(=O)n1C`, the Potency is inactive: > 76.9 µM.

For `CCC(=O)N1CCc2cc(S(=O)(=O)NCCN3CCCCC3CC)ccc21` (centres undefined), the Potency was inactive: > 76.9 µM.

In the case of `COc1ccc(-c2nnc(CSc3nc4ccccc4c(=O)n3C)o2)cc1OC`, the Potency is inactive: > 76.9 µM.

As for `O=C(CNS(=O)(=O)c1ccc(C(=O)N2CCOCC2)cc1)N1CCOCC1`, the Potency is inactive: > 76.9 µM.

Consider `CS(=O)(=O)N1CCCC(C(=O)NCCc2ccccc2)C1` (centres undefined), for which the Potency was inactive: > 76.9 µM.

As to `O=S(=O)(c1ccc2c(c1)OCCO2)N1CCN(c2nc3ccccc3s2)CC1`, the Potency was inactive: > 76.9 µM.

Regarding `COc1cccc(N2CC(C(=O)NC3CCCCC3)CC2=O)c1` (centres undefined), the Potency is inactive: > 76.9 µM.

On to `CCc1ccccc1OCC(=O)Nc1ccc(S(N)(=O)=O)cc1`, for which the Potency is inactive: > 76.9 µM.

As for `c1ccc(Cn2c(Sc3nnnn3-c3ccccc3)nnc2-c2ccccc2)cc1`, the Potency was inactive: > 76.9 µM.

In the case of `CCOC(=O)CSc1nc2ccccc2c(=O)n1CC1CCCO1` (centres undefined), the Potency is inactive: > 76.9 µM.

For `c1ccc(N2CCN(c3cnccn3)CC2)nc1`, the Potency was inactive: > 76.9 µM.

On to `Cc1nc2cc(Cl)ccc2n1CCO`, for which the Potency was inactive: > 76.9 µM.

For `CCCN1C(=O)c2ccccc2NC1c1ccc(OC)cc1O` (centres undefined), the Potency was inactive: > 76.9 µM.

Consider `COc1ccccc1C(=O)n1nc(-c2ccc(Cl)cc2)nc1N`, for which the Potency was inactive: > 76.9 µM.

As for `O=C1CC(c2ccccc2)Sc2ccccc2N1` (centres undefined), the Potency is inactive: > 76.9 µM.

With `Cc1cccc(OCC(=O)Nc2ccc3c(c2)OCCO3)c1`, the Potency was inactive: > 76.9 µM.

As for `Cc1cccc(OCC2=NS(=O)(=O)c3ccccc3N2)c1`, the Potency result is “inactive”.

As to `Cc1cc(NC(=O)CCc2ccc(S(=O)(=O)N3CCOCC3)cc2)n(-c2ccccc2)n1`, the Potency was inactive: > 76.9 µM.

As for `C=CCOc1ccc(C2/C(=C(\O)c3c(C)[nH]c(C(=O)OC)c3C)C(=O)C(=O)N2CCN(C)C)cc1` (centres undefined), the Potency was inactive: > 76.9 µM.

On to `COc1ccc(CCN2C(=O)CCC2(C)C(=O)NCc2cccnc2)cc1OC` (centres undefined), for which the Potency is inactive: > 76.9 µM.

For `CC(=O)Nc1ccc(S(=O)(=O)N2CCC(NC(=O)C(Cc3cccn3C)NC(C)=O)CC2)cc1` (centres undefined), the Potency was inactive: > 76.9 µM.

Turning to `CCN(CCO)Cc1cc(=O)oc2c(C)c(C)ccc12`, the Potency was inactive: > 76.9 µM.

For the compound `O=C(NCC(=O)N(CCN1CCOCC1)C(C(=O)NC1CCCC1)c1cccs1)c1ccco1` (centres undefined), the Potency was inactive: > 76.9 µM.

In the case of `CCOC(=O)CNC(=O)CSc1nnc(-c2ccco2)n1Cc1ccco1`, the Potency was inactive: > 76.9 µM.

For `COc1ccc2c(c1)c1ccccc1n2C`, the Potency is inactive: > 76.9 µM.

With `CCOc1cc(NC(=O)C2CCCO2)c(OCC)cc1NC(C)=O` (centres undefined), the Potency was inactive: > 76.9 µM.

Take `Cc1oc(-c2ccccc2Cl)cc1-c1nn2c(-c3ccco3)nnc2s1`: the Potency was inactive: > 76.9 µM.

As for `c1ccc(-c2nnc(CSc3nnc(-c4ccncc4)n3Cc3ccco3)o2)cc1`, the Potency is inactive: > 76.9 µM.

On to `CC(=O)NCC(=O)NC(C(=O)Nc1ccc2c(c1)OCCO2)c1ccc(C)cc1` (centres undefined), for which the Potency was inactive: > 76.9 µM.

In the case of `O=C(Nc1cnn(Cc2ccccc2)c1)c1nc2ncccn2n1`, the Potency result was “inactive”.

`COc1ccc(NC(=O)C2CC(=O)N(c3cc(C)ccc3C)C2)cc1` (centres undefined): the Potency is inactive: > 76.9 µM.

In the case of `Cc1ccc2cccc(S(=O)(=O)Nc3c(C)n(C)n(-c4ccccc4)c3=O)c2n1`, the Potency was inactive: > 76.9 µM.

`Cc1ccc(S(=O)(=O)N2CCN(C(=O)N(C)C)CC2)cc1C`: the Potency is inactive: > 76.9 µM.

For `c1ccc(CC2CCN(Cc3nc(-c4ccccc4)no3)CC2)cc1`, the Potency is inactive: > 76.9 µM.

Consider `Cc1nn(-c2ccccc2)c(Oc2ccc(F)cc2)c1/C=N/n1cnnc1`, for which the Potency was inactive: > 76.9 µM.

Consider `CCOC(=O)CSC1=Nc2ccccc2C2=NC(CC(=O)NCc3ccc4c(c3)OCO4)C(=O)N12` (centres undefined), for which the Potency was inactive: > 76.9 µM.

With `CCn1c(SCC(=O)OCC(=O)N2c3ccccc3NC(=O)C2(C)C)nnc1-c1ccco1`, the Potency was inactive: > 76.9 µM.

With `CCN1CCN(c2ncc3c(n2)CC(c2cc(OC)c(OC)c(OC)c2)CC3=O)CC1` (centres undefined), the Potency was inactive: > 76.9 µM.

Regarding `Cc1ccc(NC2c3ncccc3C(=O)N2C2CCCCC2)cc1C` (centres undefined), the Potency is inactive: > 76.9 µM.

As for `CCOCCn1c(N2CCN(c3ccc(OC)cc3)CC2)nc2c1c(=O)[nH]c(=O)n2C`, the Potency is inactive: > 76.9 µM.

As for `O=C(Cc1ccccc1)N1CCC(c2nc(-c3ccc(F)cc3)no2)CC1`, the Potency was inactive: > 76.9 µM.

Consider `Cc1cccc(N2CCN(S(=O)(=O)c3ccc4c(c3)n(C)c(=O)c(=O)n4C)CC2C)c1` (centres undefined), for which the Potency was inactive: > 76.9 µM.

With `CN1CCc2c(sc3c2C(=O)NC(c2ccccn2)N3)C1` (centres undefined), the Potency is inactive: > 76.9 µM.

For the compound `COCCn1nnnc1CN(CCc1ccc(OC)c(OC)c1)Cc1cc2ccc(C)cc2[nH]c1=O`, the Potency is inactive: > 76.9 µM.

Take `COc1ccc(S(=O)(=O)NCc2ccc(C(=O)O)cc2)cc1`: the Potency was inactive: > 76.9 µM.

Regarding `O=C1NCCCC2c3c(cc(Br)c(O)c3Br)OC12N1CCOCC1` (centres undefined), the Potency was inactive: > 76.9 µM.

Take `COc1cc2cc(C(c3nnnn3C3CCCC3)N3CCCCC3)c(=O)[nH]c2cc1OC` (centres undefined): the Potency is inactive: > 76.9 µM.

For the compound `Clc1c(CSc2nc3ccccc3o2)nc2sccn12`, the Potency is inactive: > 76.9 µM.

As for `CS(=O)(=O)N1CCC(C(=O)NCc2ccc(F)cc2Cl)CC1`, the Potency was inactive: > 76.9 µM.

For `O=C(CN1C(=O)c2ccccc2C1=O)Nc1ccc(-c2nc3ccccc3o2)cc1`, the Potency is inactive: > 76.9 µM.

For the compound `CCc1nnc(NC(=O)CSc2nnc(COc3cccc(C)c3)o2)s1`, the Potency is inactive: > 76.9 µM.

For the compound `CCc1ccc(NC(=O)C(C)Nc2ccc(S(=O)(=O)NC(C)=O)cc2)cc1` (centres undefined), the Potency is inactive: > 76.9 µM.

Turning to `COc1cc(-c2c(C#N)c(N)nc3c2c(C)nn3-c2ccc(C)c(C)c2)cc(OC)c1OC`, the Potency was inactive: > 76.9 µM.

On to `CCOC(=O)CSc1nncc2ccc(OC)c(OC)c12`, for which the Potency was inactive: > 76.9 µM.

Consider `CS(=O)(=O)N(CC(=O)NCc1ccco1)c1ccc2c(c1)OCO2`, for which the Potency is inactive: > 76.9 µM.

Turning to `Cc1cc(C)nc(NC2=NCC(=O)N2c2ccc3c(c2)OCCO3)n1`, the Potency was inactive: > 76.9 µM.

As for `Cn1c(Cc2cccs2)nnc1SC/C=C/c1ccccc1`, the Potency was inactive: > 76.9 µM.

On to `CCC(C(=O)NCc1ccco1)N(C(=O)CNS(=O)(=O)c1ccc(C)cc1)c1ccccc1OC` (centres undefined), for which the Potency was inactive: > 76.9 µM.

Consider `Cc1ccc(S(=O)(=O)NCc2csc(C)n2)c(C)c1`, for which the Potency is inactive: > 76.9 µM.

Regarding `OCCOc1ccc(C2=NCCO2)cc1`, the Potency was inactive: > 76.9 µM.

In the case of `CCN(CC)C(=O)C1CC(=O)OC1(C)C` (centres undefined), the Potency was inactive: > 76.9 µM.

As to `CC1(c2ccccc2)NC(=O)N(CC(=O)NC(=O)NC2CCCC2)C1=O` (centres undefined), the Potency is inactive: > 76.9 µM.

For `CC(=O)Nc1c(C(=O)N2CCN(c3ncccn3)CC2)cnn1-c1ccccc1Cl`, the Potency is inactive: > 76.9 µM.

As for `CCOC(=O)c1sc2nc(CC(=O)OC)nc(NCc3ccco3)c2c1C`, the Potency was inactive: > 76.9 µM.

Turning to `O=C(COc1ccccc1)Nc1nn[nH]n1`, the Potency is inactive: > 76.9 µM.

Turning to `CCOC(=O)Cn1c(=O)c2c(nc3n2CCN3Cc2ccccc2)n(C)c1=O`, the Potency was inactive: > 76.9 µM.

Take `Fc1cccc(-n2c(-c3ccco3)nc3nc4ccccc4nc32)c1`: the Potency was inactive: > 76.9 µM.

On to `Cc1onc(-c2ccccc2)c1C(=O)n1cccn1`, for which the Potency is inactive: > 76.9 µM.

On to `CCCCN(CC)CCCNC(=O)CC1Nc2ccccc2NC1=O` (centres undefined), for which the Potency is inactive: > 76.9 µM.

`O=C1CN(S(=O)(=O)c2ccc(F)cc2)CC(=O)N1CCc1ccccc1`: the Potency is inactive: > 76.9 µM.

As for `Cc1ccnc(SCCn2c(N3CCN(C)CC3)nc3c2c(=O)[nH]c(=O)n3C)n1`, the Potency is inactive: > 76.9 µM.

Take `CCn1c(O)c(C=Nc2ccccc2)oc1=S`: the Potency is inactive: > 76.9 µM.
